Reference: article PMC3207854
Changes are numbered by the printed parent chain. Names may count otherwise. No constants are given. Whether binding was seen depends on the method and setting. Some binding calls cover weakened binding; strength is not graded here. Tags and fused reporters may be left off the sequences shown.

T1: LexA-Pch2 (S. cerevisiae) (UniProt P38126)
T1 sequence: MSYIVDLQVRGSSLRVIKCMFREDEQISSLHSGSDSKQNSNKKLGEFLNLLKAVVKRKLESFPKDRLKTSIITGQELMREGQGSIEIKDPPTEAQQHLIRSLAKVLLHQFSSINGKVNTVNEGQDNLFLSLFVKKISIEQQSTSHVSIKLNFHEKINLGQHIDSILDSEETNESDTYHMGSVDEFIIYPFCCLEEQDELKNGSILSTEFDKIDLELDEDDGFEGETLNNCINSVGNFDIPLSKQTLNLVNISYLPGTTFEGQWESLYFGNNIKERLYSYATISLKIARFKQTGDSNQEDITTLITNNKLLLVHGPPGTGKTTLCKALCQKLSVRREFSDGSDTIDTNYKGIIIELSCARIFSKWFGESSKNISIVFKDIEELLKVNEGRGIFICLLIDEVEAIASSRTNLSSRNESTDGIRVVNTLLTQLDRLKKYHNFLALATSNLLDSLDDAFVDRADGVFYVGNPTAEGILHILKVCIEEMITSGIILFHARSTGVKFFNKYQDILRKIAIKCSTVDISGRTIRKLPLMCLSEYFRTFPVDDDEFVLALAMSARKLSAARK

T2: Mre11 (yeast two-hybrid construct) (S. cerevisiae) (UniProt P32829)
T2 sequence: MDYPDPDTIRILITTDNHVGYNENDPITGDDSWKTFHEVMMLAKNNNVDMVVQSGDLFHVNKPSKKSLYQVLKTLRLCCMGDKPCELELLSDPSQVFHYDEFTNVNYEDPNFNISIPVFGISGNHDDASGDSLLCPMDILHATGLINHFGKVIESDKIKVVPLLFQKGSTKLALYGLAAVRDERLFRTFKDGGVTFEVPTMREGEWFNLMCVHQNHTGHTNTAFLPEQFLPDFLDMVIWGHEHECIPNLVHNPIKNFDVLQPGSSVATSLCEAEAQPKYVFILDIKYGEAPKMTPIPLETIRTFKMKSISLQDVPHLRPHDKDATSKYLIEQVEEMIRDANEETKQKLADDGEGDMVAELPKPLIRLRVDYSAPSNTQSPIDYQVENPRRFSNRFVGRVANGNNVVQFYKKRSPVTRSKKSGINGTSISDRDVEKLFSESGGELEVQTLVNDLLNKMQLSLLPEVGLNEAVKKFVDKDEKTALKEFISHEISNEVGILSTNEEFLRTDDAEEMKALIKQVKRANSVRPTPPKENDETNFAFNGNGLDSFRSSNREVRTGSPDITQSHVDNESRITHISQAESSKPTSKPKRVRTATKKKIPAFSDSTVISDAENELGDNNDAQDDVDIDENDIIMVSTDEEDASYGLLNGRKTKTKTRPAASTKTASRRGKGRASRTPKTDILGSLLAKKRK

B1: Xrs2 (full-length, Gal4AD fusion in pACT2-2) (protein, UniProt P33301 1-854)
chain: MWVVRYQNTLEDGSISFISCCLQAFKTYSIGRSSKNPLIIKNDKSISRQHITFKWEINNSSDLKHSSLCLVNKGKLTSLNKKFMKVGETFTINASDVLKSTIIELGTTPIRIEFEWINEVWNIPPHLTQFRTMLSEYGISTEISINDIPANLMISDYPKSEDNSIRELYALVSTIPMKKSRFLMELCNTLLPTSKTNLKFDEMWNDMISNPEYNVFDFDPNILLSKFMRLNNIRVLTTIKSEPRLSSLLRTFNINLFAFDNIDSLYKYVDSLEASTEYLILTTTDKKENGKILCTIKTMLTSIIDGTLSAVINMKGASSRTLDNGKFDQISEGMSTILKTSRAPEVEASPVVSKKRKLNRRRVLPLDSLDFFAGGLSTKTLSENRSLTDAKRLNCGAESKTVISSPNIAEADEKHAPFLQNALKPTEDIGKKSGHSSPGAIIVSSPNLGTVNTSEDSLDKSLQSHKLPQPSLPEVAGIGSQTISSNSADYETAAVNSMDDAEVTKNFRVNHHQNIEQPSKNIRKLSNYSREISSPLQENCKSPVKELSIKEKSGTPHAFVEAIQETKNREVKRVKSTIVELKDEELSEEAINQLKNLAIVEPSNNLLRKSFDSEGNKTSRTTEKWENSLMEPEWHKRKNFKTFVKVRPKSKAHKEEGKNNTQSSDFIRNAAFLITRNYVPLKKYSKKDTTTKWGTEENEDMFALTEMERFGSNTFMSDNINSNTIQKRSQALNRFTNEDSSNEGEEDSFSFSRCSGTAASVQPLKNKIFITDEDDLGDIDDKSDRLNHRENNRNLFVVKEMNLRPNLSEECSKQSRHSRSATSRSRGSFGASNNGDGDDDDDDGPKFTFKRRKG
B2: Rad50 (yeast two-hybrid construct) (protein, UniProt P12753 1-1312)
chain: MSAIYKLSIQGIRSFDSNDRETIEFGKPLTLIVGMNGSGKTTIIECLKYATTGDLPPNSKGGVFIHDPKITGEKDIRAQVKLAFTSANGLNMIVTRNIQLLMKKTTTTFKTLEGQLVAINNSGDRSTLSTRSLELDAQVPLYLGVPKAILEYVIFCHQEDSLWPLSEPSNLKKKFDEIFQAMKFTKALDNLKSIKKDMSVDIKLLKQSVEHLKLDKDRSKAMKLNIHQLQTKIDQYNEEVSEIESQLNEITEKSDKLFKSNQDFQKILSKVENLKNTKLSISDQVKRLSNSIDILDLSKPDLQNLLANFSKVLMDKNNQLRDLETDISSLKDRQSSLQSLSNSLIRRQGELEAGKETYEKNRNHLSSLKEAFQHKFQGLSNIENSDMAQVNHEMSQFKAFISQDLTDTIDQFAKDIQLKETNLSDLIKSITVDSQNLEYNKKDRSKLIHDSEELAEKLKSFKSLSTQDSLNHELENLKTYKEKLQSWESENIIPKLNQKIEEKNNEMIILENQIEKFQDRIMKTNQQADLYAKLGLIKKSINTKLDELQKITEKLQNDSRIRQVFPLTQEFQRADLEMDFQKLFINMQKNIAINNKKMHELDRRYTNALYNLNTIEKDLQDNQKSKEKVIQLLSENLPEDCTIDEYNDVLEETELSYKTALENLKMHQTTLEFNRKALEIAERDSCCYLCSRKFENESFKSKLLQELKTKTDANFEKTLKDTVQNEKEYLHSLRLLEKHIITLNSINEKIDNSQKCLEKAKEETKTSKSKLDELEVDSTKLKDEKELAESEIRPLIEKFTYLEKELKDLENSSKTISEELSIYNTSEDGIQTVDELRDQQRKMNDSLRELRKTISDLQMEKDEKVRENSRMINLIKEKELTVSEIESSLTQKQNIDDSIRSKRENINDIDSRVKELEARIISLKNKKDEAQSVLDKVKNERDIQVRNKQKTVADINRLIDRFQTIYNEVVDFEAKGFDELQTTIKELELNKAQMLELKEQLDLKSNEVNEEKRKLADSNNEEKNLKQNLELIELKSQLQHIESEISRLDVQNAEAERDKYQEESLRLRTRFEKLSSENAGKLGEMKQLQNQIDSLTHQLRTDYKDIEKNYHKEWVELQTRSFVTDDIDVYSKALDSAIMKYHGLKMQDINRIIDELWKRTYSGTDIDTIKIRSDEVSSTVKGKSYNYRVVMYKQDVELDMRGRCSAGQKVLASIIIRLALSETFGANCGVIALDEPTTNLDEENIESLAKSLHNIINMRRHQKNFQLIVITHDEKFLGHMNAAAFTDHFFKVKRDDRQKSQIEWVDINRVTY
B3: Xrs2(126–313)-Gal4AD (domain or fragment, UniProt P33301 126-313)
chain: HLTQFRTMLSEYGISTEISINDIPANLMISDYPKSEDNSIRELYALVSTIPMKKSRFLMELCNTLLPTSKTNLKFDEMWNDMISNPEYNVFDFDPNILLSKFMRLNNIRVLTTIKSEPRLSSLLRTFNINLFAFDNIDSLYKYVDSLEASTEYLILTTTDKKENGKILCTIKTMLTSIIDGTLSAVIN
B4: Xrs2(1–313)-S47A H50A (domain or fragment, UniProt P33301 1-313)
chain: MWVVRYQNTLEDGSISFISCCLQAFKTYSIGRSSKNPLIIKNDKSIARQAITFKWEINNSSDLKHSSLCLVNKGKLTSLNKKFMKVGETFTINASDVLKSTIIELGTTPIRIEFEWINEVWNIPPHLTQFRTMLSEYGISTEISINDIPANLMISDYPKSEDNSIRELYALVSTIPMKKSRFLMELCNTLLPTSKTNLKFDEMWNDMISNPEYNVFDFDPNILLSKFMRLNNIRVLTTIKSEPRLSSLLRTFNINLFAFDNIDSLYKYVDSLEASTEYLILTTTDKKENGKILCTIKTMLTSIIDGTLSAVIN
B5: Xrs2(1–313)-Gal4AD (domain or fragment, UniProt P33301 1-313)
chain: B4 chain with A47S, A50H
B6: Mre11 (yeast two-hybrid construct) (protein, UniProt P32829 1-692)
chain: T2 sequence

Legend:
[1] = biological target: T1, LexA-Pch2 (S. cerevisiae); assay: two-hybrid; spot assay in strain L40; LexA DNA binding domain and Gal4 activation domain fusions; growth on SC-Leu-Trp-His plus 1 mM 3-AT, 3-5 days
[2] = biological target: T2, Mre11 (yeast two-hybrid construct) (S. cerevisiae); assay: as above

Binder | binding [1] | binding [2]
B1 | binds | binds
B2 | no binding | binds
B3 | binds | –
B4 | binds | –
B5 | binds | –
B6 | no binding | –
